# Reference: publication PMC4336329 (PLoS ONE, 2015)
# Hit rate of the full screen: of about 310,000 compounds, about 2,200 (0.71%) showed an effect of 50% or more. Effects have a minus sign here. This is one part of the list.
# Target: human ether-à-go-go-related gene (hERG) potassium channel (human, UniProt Q12809)
# Assay: primary screen, population patch clamp on CHO cells stably expressing hERG
# human ether-à-go-go-related gene (hERG) potassium channel, sequence (Q12809 whole entry, looked up): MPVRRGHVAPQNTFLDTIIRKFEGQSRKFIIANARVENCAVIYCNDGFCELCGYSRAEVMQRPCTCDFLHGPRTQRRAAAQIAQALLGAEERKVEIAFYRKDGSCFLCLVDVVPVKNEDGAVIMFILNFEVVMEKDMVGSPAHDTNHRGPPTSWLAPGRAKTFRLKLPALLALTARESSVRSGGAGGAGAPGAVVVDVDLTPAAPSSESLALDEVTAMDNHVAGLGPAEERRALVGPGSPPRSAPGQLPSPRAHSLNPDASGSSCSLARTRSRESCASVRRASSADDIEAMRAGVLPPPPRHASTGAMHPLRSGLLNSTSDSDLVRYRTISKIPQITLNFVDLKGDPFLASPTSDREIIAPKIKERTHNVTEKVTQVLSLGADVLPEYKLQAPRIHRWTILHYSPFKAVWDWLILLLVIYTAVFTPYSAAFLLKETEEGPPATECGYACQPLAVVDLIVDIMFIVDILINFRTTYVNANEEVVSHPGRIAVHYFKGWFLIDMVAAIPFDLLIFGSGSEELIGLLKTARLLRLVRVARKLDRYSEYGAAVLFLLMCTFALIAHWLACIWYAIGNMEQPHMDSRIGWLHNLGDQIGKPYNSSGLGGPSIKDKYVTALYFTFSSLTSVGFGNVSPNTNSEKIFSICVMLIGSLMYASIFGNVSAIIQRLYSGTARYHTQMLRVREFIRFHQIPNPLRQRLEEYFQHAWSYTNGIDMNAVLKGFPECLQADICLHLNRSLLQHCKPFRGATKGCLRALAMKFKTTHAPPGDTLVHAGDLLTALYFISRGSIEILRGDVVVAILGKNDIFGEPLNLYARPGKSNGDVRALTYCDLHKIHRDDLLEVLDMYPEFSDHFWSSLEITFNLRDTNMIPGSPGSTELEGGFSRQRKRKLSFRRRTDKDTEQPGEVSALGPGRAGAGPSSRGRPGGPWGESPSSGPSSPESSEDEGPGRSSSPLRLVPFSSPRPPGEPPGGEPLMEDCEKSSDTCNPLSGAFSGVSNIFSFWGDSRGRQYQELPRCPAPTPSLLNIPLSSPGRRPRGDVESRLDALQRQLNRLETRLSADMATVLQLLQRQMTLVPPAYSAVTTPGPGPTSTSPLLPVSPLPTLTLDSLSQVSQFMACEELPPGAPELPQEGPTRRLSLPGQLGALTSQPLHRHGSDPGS
row,SMILES,"hERG current change (%, negative = inhibition) at 1uM [%]"
1,Cc1cccc(CS(=O)(=O)Cc2ccc(C(=O)O)o2)c1,13.2
2,CCn1c(N)c(C(=O)NCCOC)sc1=S,12.3
3,Cc1ccccc1N(Cc1cc(=O)[nH]c2ccccc12)C(=O)C(C)C,5.33
4,CC(Cc1cnccn1)NC(=O)c1cc(COc2ccc(F)cc2F)on1 (centres unmarked),14
5,Cc1ccc(-n2ncc3c(=O)n(CC(=O)N(C)C)cnc32)cc1C,9.26
6,C=CCNC(=O)c1onc(CSc2cccc(OCC)c2)c1C(=O)O,10.3
7,CCc1ccccc1NC(=O)CC1S/C(=N\c2nccs2)N(CC)C1=O (centres unmarked),7.62
8,Cc1ccnc(NC(=O)c2cccs2)c1,10.2
9,NC(=O)c1oc2ccccc2c1NC(=O)c1ccc([N+](=O)[O-])o1,16.8
10,O=C(Nc1cccc(-c2nc3ccccc3[nH]2)c1)c1ccco1,18.5
11,O=C(Nc1ccccc1)ON=C1c2ccccc2-c2ccccc21,12.7
12,C/C(=N\NC(=O)CN1CCCCC1)c1ccccc1O,9.12
13,COc1ccc(Cn2c(CCCO)nc3ccccc32)cc1OC,-1.67
14,Cc1cc(OC(C)C(=O)NCC(O)c2ccccc2)c2c(C)cc(=O)oc2c1 (centres unmarked),8.66
15,O=C1c2ccccc2CN1CCSC(=S)N1CCOCC1,-1.51
16,COc1ccccc1Oc1nnnn1-c1ccc(C(N)=O)cc1,-0.0041
17,O=C1c2cccc3c(N4CCCCC4)ccc(c23)C(=O)N1CCO,10
18,COc1ccc(C(=O)NC2CC2)cc1OC1CCN(Cc2cnn(C)c2C)CC1,-2
19,CC(=O)Nc1cc2c(cc1NC(=O)Cn1nc(-c3ccc(F)cc3)ccc1=O)OCCO2,-0.121
20,COC(=O)c1ccc(CN2C(=O)c3ccccc3C2=O)cc1,9.13
21,CCOc1ccc2nc(NC(=O)CSc3nc(SC)ns3)sc2c1,8.05
22,COc1ccccc1C(CNC(=O)c1cc(S(=O)(=O)N2CCOCC2)ccc1C)N1CCCC1 (centres unmarked),11.2
23,CNNC(=O)C(=O)NNS(=O)(=O)c1ccccc1,12.5

row,SMILES,"hERG current change (%, negative = inhibition) at 1uM [%]"
1,OC[C@H]1NC[C@@H](O)[C@@H]1O,14.6
2,CC(C)(C)N1C(=O)c2ccc(C(=O)Nc3ccc(-c4nc5ccccc5[nH]4)cc3)cc2C1=O,7.66
3,COc1ccc(CCNC(=O)c2cc3c(=O)n4cccc(C)c4nc3n(CCCN3CCOCC3)c2=N)cc1,-85.1
4,CC(C(=O)Nc1ccon1)N1C(=O)c2ccccc2S1(=O)=O (centres unmarked),-2.78
5,Cl.c1ccc(C(c2ccccc2)N2CCN(Cc3nnnn3C3CCCC3)CC2)cc1,6.82
6,CC1CC(C)CN(C(=O)c2ccc3c(=O)n(Cc4ccc5c(c4)OCO5)c(=S)[nH]c3c2)C1 (centres unmarked),6.76
7,Cc1noc(C)c1COC(=O)C1CC(O)CN1S(=O)(=O)c1ccc(Cl)cc1 (centres unmarked),8.11
8,CCOC(=O)Cc1cnc(NC(=O)CSc2nc(C)cc(C)n2)s1,16.9
9,FC(F)(F)c1ccc(-c2nnc(-c3cccnc3)o2)cc1,13.2
10,O=C(c1ccc2nc(N3CCOCC3)sc2c1)N1CCCC1,3.54
11,CC(=O)Nc1ccc(S(=O)(=O)N2CCSC2C(=O)O)cc1 (centres unmarked),8.15
12,CN(C(=O)COC(=O)c1ccccc1NCCO)C1CCS(=O)(=O)C1 (centres unmarked),-8.2
13,COc1cc2c(cc1OC)CN(C1CCC(C)CC1)CC2 (centres unmarked),11.2
14,CSc1ccccc1COC(=O)Nc1ccccc1C,-10.9
15,CCc1nnc(NC(=O)CCN2C(=O)C3CCCCC3C2=O)s1 (centres unmarked),6.55
16,COc1ccc(C(CC(=O)O)c2ccc3c(c2)OCO3)cc1 (centres unmarked),6.26
17,CC(C)NC(=O)CCNS(=O)(=O)c1ccc(Br)cc1,15.9
18,COc1ccc(-c2nnc(SC(C)C(=O)NCc3ccc4c(c3)OCO4)n2Cc2ccco2)cc1 (centres unmarked),-16.1
19,COc1ccc(NC(=S)N(CCCN2CCCC2)Cc2cccn2Cc2ccc(Cl)cc2)cc1Cl,3.12
20,CCN(CC)CCCNC(=O)Cn1cnc2sc(C)c(S(=O)(=O)N3CCC(C)CC3)c2c1=O,14.3
21,COc1cccc(OCc2cc(C(=O)NCCN3CCCCC3CO)no2)c1 (centres unmarked),15.3
22,Cc1ccc(NC(=S)N2CCCC(O)C2)cc1 (centres unmarked),12.9
23,COc1ccc(S(=O)(=O)N2CCN(C(=S)NCCc3ccccc3)CC2)cc1,15.9

row,SMILES,"hERG current change (%, negative = inhibition) at 1uM [%]"
1,CNC(=O)c1sc2nc(-c3ccc(OC)cc3)cn2c1C,4.18
2,COCCn1c(Br)nc2c1c(=O)n(C)c(=O)n2C,11.2
3,CC(=O)Nc1ccc(NC(=O)CSc2nnc(-c3cc(C)[nH]n3)n2N)cc1,10.1
4,CCN1CCN(C(=O)CN(C)S(=O)(=O)c2ccc(Cl)cc2)CC1,-6.47
5,Cc1ccc(C2C3=C(CC(C)(C)CC3=O)OC3=C2C(=O)CC(C)(C)C3)cc1,9.94
6,C=CCNC(=O)CSc1nnc(-c2ccccc2Br)n1-c1cccc(C(F)(F)F)c1,10.5
7,O=C(NCCc1ccccc1)C1=COCCO1,4.58
8,CC(c1ccccc1)C1CC(=O)N(CC(=O)O)C1=O (centres unmarked),16.2
9,C=CCN=C1N[C@@H](c2cccc(C(F)(F)F)c2)C(C(=O)OC)=C(C)N1CC,10.5
10,C=C1C/C(=C/C)C(=O)O[C@@H]2CCN3CC=C(COC(=O)[C@]1(C)O)[C@H]23,5.45
11,O=C1CC(Nc2ccc(N3CCOCC3)cc2)C(=O)N1Cc1ccccc1 (centres unmarked),14.4
12,CC1CCCC(NC(=O)NC(=O)CCl)C1C (centres unmarked),13.7
13,NNC(=O)CNC(=O)c1ccccc1F,13.1
14,Nn1c(SCC(=O)Nc2ccc(N3CCOCC3)cc2)nnc1-c1ccccc1F,-1.52
15,CC(C)OC(=O)C1CC=CCC1C(=O)Nc1ccc(Cl)cc1 (centres unmarked),7.99
16,CSC1=N/C(=C/c2cccnc2)C(=O)N1Cc1ccc(Cl)cc1,12.7
17,CCOC(=O)c1c(NC(=O)CSc2nnc(-c3ccccc3C)n2C)sc(C(C)=O)c1C,7.99
18,O=C(O)c1nc2ccccc2nc1C(=O)O,14.5
19,Cc1cc(C)n2nc(SCC(=O)Nc3ccccc3C)nc2n1,8.39
20,Cc1nc2ccccc2nc1OCC(=O)NCc1ccc2c(c1)OCO2,9.2
21,COc1cccc(N2C(=O)CN(Cc3ccccc3)C2=S)c1,9.25
22,Cc1ccccc1OCc1nc2ccc(S(=O)(=O)N3CCOCC3)cc2[nH]1,10
23,CCOCCn1c(SCCCc2ccccc2)nc2c1c(=O)[nH]c(=O)n2C,10.9

row,SMILES,"hERG current change (%, negative = inhibition) at 1uM [%]"
1,O=C(NC1CCCN(Cc2ccc(Cl)cc2)C1)c1c(F)ccc(F)c1F (centres unmarked),-55.4
2,CN(CCO)S(=O)(=O)c1ccc2c(c1)C(=NNC(N)=O)c1cc(S(=O)(=O)N(C)CCO)ccc1-2,9.96
3,NC(=O)OCCSc1nnc(-c2cccc(C(N)=S)c2)o1,5.22
4,O=C1NC(=Nc2ccccc2)c2ccc([N+](=O)[O-])cc21,9.19
5,COc1ccc(CCc2nnc(CCC(=O)NCCc3ncccc3C)o2)cc1,3.99
6,COc1ccc(OCCn2c(C)c(/C=N/n3cnnc3)c3ccccc32)cc1,4.76
7,O=[N+]([O-])c1ccc(N2CCN(S(=O)(=O)c3ccc4ccccc4c3)CC2)cc1NCC1CCCO1 (centres unmarked),15.4
8,CCn1c(C)nc2cc(C(=O)NNC(=O)Nc3ccc(Cl)cc3)ccc21,3.14
9,CN(C)Cc1ccccc1Sc1ccccc1Br,-1.66
10,COc1ccccc1NC(=O)CSc1ccc(-c2ccc(-n3ccnc3)cc2)nn1,2.72
11,Cc1ccc(CN(CC(=O)NCC2CCCO2)S(=O)(=O)c2ccc(C)cc2)cc1 (centres unmarked),11.9
12,Cn1cccc1/C=N/N1CCN(Cc2ccccc2)CC1,8.09
13,Cc1ccc(NC(=O)C2C3C=CC4(O3)C2C(=O)N(CCCN2CCCC2)C4C(=O)NC2CCCCC2)cc1Cl (centres unmarked),18.6
14,CCOC(=O)C(NC(=O)Nc1ccc(C(N)=O)cc1)(c1ccccc1)C(F)(F)F (centres unmarked),0.733
15,CCC(C(=O)Nc1ccc(C(=O)O)cc1NC(=O)C(CC)c1ccccc1)c1ccccc1 (centres unmarked),12.2
16,O=C(O)C1Cc2ccccc2N2CCCC12 (centres unmarked),15.6
17,CCOc1ccc(/C=C2\SC(=S)N(NS(=O)(=O)c3ccccc3)C2=O)cc1OC,6
18,COc1ccc(Cc2nnc(NC(=O)c3cc(OC)c(OC)c(OC)c3)s2)cc1,10.9
19,COc1ccc(C(=O)/C=C/c2ccc(F)cc2)c(OC(=O)c2ccc([N+](=O)[O-])cc2)c1,10.2
20,COc1ccc(-n2cnnc2SCC(=O)Nc2cccc(S(=O)(=O)N3CCCCC3)c2)cc1,2.72
